Data on 172 sequences can be found in publication PMC6212790.

The other results are listed elsewhere or left out. At the low end of the ranking the order means little.

For the assay, the target named is T1, GST-Rok (full length) (UniProt O34857).
T1 sequence: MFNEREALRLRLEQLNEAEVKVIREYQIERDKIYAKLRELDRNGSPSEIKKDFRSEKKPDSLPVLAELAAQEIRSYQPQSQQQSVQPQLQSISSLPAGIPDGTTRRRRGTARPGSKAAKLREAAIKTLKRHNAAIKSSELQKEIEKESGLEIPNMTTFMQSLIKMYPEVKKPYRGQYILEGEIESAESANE
Nature of the assay: protein binding microarray.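 Further: rank score from −0.5 (least bound) to 0.5 (best bound).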 Particulars: Rok is a gene silencer of Bacillus subtilis; high values mean tight binding; most listed sequences are background and not binding sites; double strand, one strand shown.
ATGGAGGC returned a binding signal of -0.13 E-score. The same measure for ATCTCGGC: -0.138 E-score. The same measure for TCGGGAAA: -0.159 E-score; for GAAGTATC: 0.326 E-score. Take CGTGCAGC: the binding signal is -0.0322 E-score.

For the sequence ACGTCATA, the binding signal amounted to 0.128 E-score.

AGCAAGGA gave a binding signal of -0.202 E-score.

Turning to GTGTAGTA, the binding signal came to 0.379 E-score. The same measure for AAGGTATT: 0.14 E-score; for TATCATAA: 0.162 E-score. Next, GCGGTCAA: -0.132 E-score. The same measure for CACCTATG: -0.176 E-score; for AATTCACC: 0.115 E-score; for AGTAGCTG: 0.204 E-score. In the case of GAATGCAC, the binding signal is -0.022 E-score. The same measure for AGAGCGAT: -0.0891 E-score; for GAAGCCGA: -0.0578 E-score. The same measure for CGGCCACA: -0.268 E-score. Next, TGCCCGAA: -0.238 E-score; GTAGCCAA: -0.0619 E-score. As for AGACGCCA, the binding signal was -0.226 E-score. Next, GGCGGTTA: -0.11 E-score; CTTGCATA: 0.0428 E-score. Next, ATGTACCC: 0.0665 E-score; AATAACCT: 0.0317 E-score; TGAATTCA: 0.147 E-score. The same measure for CATACGGG: -0.188 E-score; for CAAGATTC: 0.129 E-score; for CATCATAA: 0.0866 E-score. The sequence GAGTGAAA showed a binding signal of -0.103 E-score. Consider ACTGTTGA, for which the binding signal was 0.0285 E-score. Next, GCCCAGAC: -0.25 E-score; AAGTCATG: 0.0874 E-score. Next, CCGGCCCC: -0.392 E-score; ACCTGGCA: -0.089 E-score. For AGCTCAAA, the binding signal is -0.222 E-score.

For the sequence CCCTTTTC, the binding signal is -0.171 E-score.

For CCGCCGCA, the binding signal was -0.346 E-score. Next, CTGAGGTC: -0.269 E-score; TAGCGAAA: 0.144 E-score; ATTACGCC: 0.0644 E-score. For the sequence CGATCTCA, the binding signal is -0.192 E-score. The same measure for ATGCCGCC: -0.217 E-score.

Sequence CTGTACAA yielded a binding signal of 0.0838 E-score. With GTGAACTA, the binding signal stood at 0.212 E-score. The same measure for GCTTAAGC: -0.201 E-score; for GGCGGCTA: -0.109 E-score. As for ACTGGTAT, the binding signal is 0.195 E-score. Next, CCGGTTTA: 0.0148 E-score; ATATGAAC: 0.126 E-score; AGTGTAAC: 0.151 E-score. With CTGGGCCA, the binding signal is -0.2 E-score. Next, CCATGAGC: -0.177 E-score; CACTTTTC: 0.0315 E-score. Next, GTGGGCTA: -0.119 E-score; GCACCCGA: -0.295 E-score; CAGAGTAG: -0.113 E-score. Sequence GAACGCCC yielded a binding signal of -0.331 E-score. The same measure for GTTACCGA: 0.15 E-score. The same measure for AAGACATG: -0.0697 E-score; for AGAATGAT: 0.242 E-score.

CTATTGTA returned a binding signal of 0.381 E-score. Turning to ATAAGCTC, the binding signal was -0.154 E-score. CTCATTGA: the binding signal was 0.00734 E-score. Next, ACACTTGC: -0.0774 E-score; CTACCCGA: -0.0584 E-score; AACGGACA: 0.0656 E-score. As for CATGTCAA, the binding signal is 0.144 E-score. Next, AATCAAAT: -0.0384 E-score. In turn, AAAATATC gave a binding signal of 0.275 E-score.

On to GTAACGAC, for which the binding signal was 0.166 E-score. Next, GCGAGATA: 0.149 E-score. Next, TCCATGCA: -0.0824 E-score; AACCCGTT: 0.000276 E-score. The same measure for CGGCTCCC: -0.379 E-score; for CATTCTAC: 0.407 E-score; for GACAACAC: -0.0144 E-score. Regarding ATTCGGTC, the binding signal was determined as 0.0426 E-score.

AATCACCC: the binding signal was -0.145 E-score.

As to CGTGACTA, the binding signal was determined as 0.0779 E-score. Next, AACCGATT: -0.0941 E-score; CAGGGCGA: -0.375 E-score; CCGAATAC: 0.0709 E-score. Next, CGACGTGC: -0.0293 E-score; AACATTCA: 0.0759 E-score. The same measure for CGACCAAA: 0.012 E-score; for AAGACCCC: -0.295 E-score; for AGCGCTCG: -0.244 E-score. The sequence GCGGAACC had a binding signal of -0.346 E-score.

Consider CGTCCTAA, for which the binding signal is -0.0629 E-score. ACTACGCA had a binding signal of 0.027 E-score. The same measure for GCTCGAAC: -0.0353 E-score; for AACTGATG: 0.111 E-score; for GCTATGCC: -0.275 E-score. Next, AGCCCCTA: -0.323 E-score; AACGCGTC: -0.159 E-score; GGTAGCAC: 0.158 E-score. The same measure for CCCTGAGA: -0.153 E-score. In turn, AGTACACA registered a binding signal of 0.278 E-score. The same measure for ACAAGAAG: -0.052 E-score.

Regarding AGGAATGA, the binding signal was -0.0111 E-score. As for AGGAAATA, the binding signal was determined as 0.107 E-score. The same measure for TATGTACA: 0.378 E-score; for AAGACAAT: 0.0596 E-score; for ACTTGTTA: 0.224 E-score.

Sequence CCACGCTC displayed a binding signal of -0.0667 E-score. The same measure for AGCCCACT: -0.114 E-score; for GACAGTAC: 0.0207 E-score; for GCTCGAAA: -0.0122 E-score.

GTAGACAC: the binding signal was -0.0975 E-score. Next, ATCCTACC: 0.256 E-score; ATTCCGGC: 0.11 E-score; GCCGCAGA: -0.284 E-score. Sequence ATCGACAG had a binding signal of 0.0183 E-score. As to AGGGAACG, the binding signal was -0.149 E-score. Next, ACCGGCCG: -0.0951 E-score; AGATCTGG: -0.0378 E-score. AATCGAGC yielded a binding signal of 0.0782 E-score. The same measure for CATTGAGC: -0.241 E-score; for GGCGACTA: -0.254 E-score. Regarding AGTTTAAG, the binding signal is -0.0396 E-score.

In the case of CGTCTGAC, the binding signal was -0.293 E-score.

As to CCATCGGA, the binding signal is -0.23 E-score. Next, AAGGGAGA: -0.313 E-score. The same measure for ACTGCGTG: -0.118 E-score; for CATTTGCA: 0.0756 E-score.

In turn, AATCCGGT gave a binding signal of 0.0671 E-score. Sequence AAAGAGCC had a binding signal of -0.175 E-score.

AAGAAATT displayed a binding signal of 0.132 E-score.

Regarding GCTCCCAC, the binding signal is -0.193 E-score. As for CAAGAGCA, the binding signal is -0.197 E-score. The same measure for CGACCCGA: -0.288 E-score.

Regarding AGTTGCAG, the binding signal was -0.11 E-score.

ATCCCCAT showed a binding signal of -0.218 E-score. The same measure for CCCGCAGG: -0.431 E-score; for CCCCCGGC: -0.361 E-score; for GTAAGAAC: -0.0248 E-score. Take GTCTCCGA: the binding signal was -0.145 E-score. With ACTAGGCT, the binding signal was -0.0445 E-score. In the case of CCCCGCAC, the binding signal is -0.33 E-score. Next, CTAGTGAA: 0.0833 E-score; CCGCATCG: -0.243 E-score; AGGTCCAT: -0.0265 E-score.

The sequence CGCTGATC registered a binding signal of -0.206 E-score.

AGCGAGGC: the binding signal was -0.194 E-score. In the case of AGATTTAA, the binding signal came to 0.183 E-score.

CCGCATAA: the binding signal was -0.0394 E-score. Next, TGAGAGCA: -0.194 E-score. The same measure for ACTACTGG: 0.224 E-score; for CACTGGAA: -0.0294 E-score; for CCACTATA: 0.162 E-score. The same measure for CGGGGGTA: -0.326 E-score. Sequence GCTGGCGA showed a binding signal of -0.138 E-score. Next, ATATAGCG: 0.349 E-score; ATATTATA: 0.425 E-score. Next, ACGAGACA: 0.173 E-score; GTCGACTA: 0.233 E-score.

ACGTCAGA: the binding signal is -0.0925 E-score. The same measure for AGCATCGC: -0.235 E-score; for AGGAGTTA: 0.0221 E-score. The same measure for CAGGTAGC: 0.1 E-score; for GAAACGAA: -0.0434 E-score. ACGCCGCC returned a binding signal of -0.272 E-score.

With GAGGAGCC, the binding signal is -0.402 E-score.

In turn, GACAAGTC yielded a binding signal of -0.207 E-score. The same measure for CCTAATCC: 0.0472 E-score; for AAACTGTT: 0.0239 E-score; for GCGTAGAC: -0.196 E-score. Next, AAACGCAT: -0.0892 E-score; AAACGGGG: -0.163 E-score. The same measure for CCGATTCA: 0.0266 E-score. Take CTCCTAAA: the binding signal was -0.089 E-score.
